Measured values: PubChem BioAssay AID2100 (National Center for Advancing Translational Sciences (NCATS), 2009)
The campaign covered roughly 300,000 compounds. About 1,200 (0.4%) were called active. The shares of active, inactive and inconclusive entries below differ from those in the screen. Calls follow the shape of the dose curve; as a rule, active = well fitted inhibition curve with a large enough effect; inconclusive = small, poorly fitted or top-dose-only effect, or another doubt; inactive = no such curve, though single readings can be large or run the other way. Where the call is inconclusive, the potency comes from a doubtful curve fit.

What follows are molecules tested against Lysosomal alpha-glucosidase (Homo sapiens) (UniProt P10253) (assay: qHTS Assay for Inhibitors and Activators of Human alpha-Glucosidase Cleavage of Glycogen). Conditions: recombinant GAA, glycogen substrate, Amplex Red glucose oxidase fluorescence; series mostly up to 76.4 µM.
Outline: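 Recombinant enzyme (4 nM final) with compounds titrated up to 77 uM and bovine liver glycogen (30 ug) in citrate pH 5.0, 0.01% Tween-20, 37 C 40 min. Released glucose detected by Amplex Red/glucose oxidase (Ex 573/Em 610); AC50 from Hill fits.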
Potency is read from the fitted curve at half-maximal effect.

| Compound | Potency |
| --- | --- |
| COc1ccc(/C=N/NC(=O)C(Cc2c[nH]c3ccccc23)NC(=O)OCC(C)C)cc1[N+](=O)[O-] (configuration not stated) | inconclusive: 44.3 µM [inhibitor, partial curve] |
| CCCCn1c2ccc(F)cc2c2nnc(NN)nc21 | inconclusive: 35.5 µM [activator, single point] |
| CCOc1ccc(-n2c(O)c(/C=N/Nc3nnc(C)c(=O)[nH]3)c3ccccc3c2=O)cc1 | active: 39.8 µM |
| Cc1cc(C)c(NC(=O)Cn2c(=O)n(Cc3ccco3)c(=O)c3ccc(C(=O)NC4CCCC4)cc32)c(C)c1 | inactive |
| Cc1[nH][nH]c(=O)c1C(c1ccc(-c2cccc(C(=O)O)c2)o1)c1c(C)[nH][nH]c1=O | inconclusive: 31.6 µM [inhibitor, partial curve] |
| Cc1ccc(NC(=S)N(C)N)cc1Cl | inconclusive: 39.8 µM [inhibitor, partial curve] |
| Cc1c(C(=O)NCCN2CCOCC2)oc2ccc(S(=O)(=O)N3CCCCCC3)cc12 | inactive |
| Fc1c(F)c(F)c(N/N=C/c2c[nH]c3ccccc23)c(F)c1F | inconclusive: 22.2 µM [inhibitor, partial curve] |
| CCc1n[nH]c(=S)n1/N=C/c1ccc(NC(C)=O)cc1 | inconclusive: 39.8 µM [inhibitor, single point] |
| Cc1cccc(NCC(=O)N/N=C\c2c[nH]c3ccccc23)c1 | inconclusive: 15.8 µM [inhibitor, partial curve] |
| Cc1ccc(N/N=C(\C#N)C(N)=S)cc1C | inconclusive: 35.5 µM [inhibitor, single point] |
| Cc1ccc(C)c(NC(=S)N/N=C2\CCc3ccccc32)c1 | inconclusive: 28.2 µM [inhibitor, partial curve] |
| Cc1cccc(C(=O)NNC2=CC(=O)CC(C)(C)C2)c1O | active: 7.94 µM |
| Oc1ccc(N2CCN(C(=S)NCc3ccccc3)CC2)cc1 | active: 3.16 µM |
| CC(=O)Nc1ccc(C2Nc3cc(C)c(C)cc3NC3=C2C(=O)CC(C)(C)C3)cc1 (configuration not stated) | inconclusive: 35.5 µM [inhibitor, partial curve, poor fit] |
| Cc1ccc(-n2cc(-c3ccccc3)c3c(NN4CCOCC4)ncnc32)cc1 | inconclusive: 4.47 µM [inhibitor, full curve] |
| CCCCCC(O)CCc1n[nH]c(=S)n1-c1ccccc1 (configuration not stated) | inconclusive: 8.91 µM [inhibitor, single point] |
| Cn1c(-c2sccc2OCc2ccc(Cl)cc2Cl)n[nH]c1=S | inconclusive: 35.5 µM [inhibitor, partial curve] |
| O=C(Cc1cc(=O)[nH][nH]1)N/N=C/c1c(Cl)cccc1Cl | inconclusive: 25.1 µM [inhibitor, partial curve] |
| CCOC(=O)c1c(C)sc(-c2c(-c3cc(C)ccc3C)[nH]c3c2c(=O)n(C)c(=O)n3C)c1O | inconclusive: 14.1 µM [inhibitor, partial curve] |
| COc1ccccc1/C=C/C=NC1C(=O)N(c2ccccc2)[N+](C)=C1C (configuration not stated) | inconclusive: 11.1 µM [inhibitor, partial curve, poor fit] |
| O=C(C1CCN(c2ncnc3c2nc2n3CCCCC2)CC1)N1CCN(c2ccc(F)cc2)CC1 | inconclusive: 11.2 µM [inhibitor, single point] |
| Cc1ccc(N/N=C/c2ccc3c(c2)OCCO3)cc1Cl | inconclusive: 35.5 µM [inhibitor, partial curve] |

| Compound | Potency |
| --- | --- |
| Cc1[nH]c2ccccc2c1/C=N/Nc1ccc([N+](=O)[O-])cc1 | inconclusive: 5.62 µM [inhibitor, full curve] |
| COC(=O)C1=C2SC(C)C(=O)N2C(N)=C(C#N)C1c1ccc(OC)c(OC)c1 (configuration not stated) | inconclusive: 28 µM [inhibitor, partial curve, poor fit] |
| CCOc1ccc(NC(=S)Nc2ccc(Br)cc2Cl)cc1 | inconclusive: 39.8 µM [inhibitor, partial curve] |
| O=C(N/N=C1/CC2CCC1C2)c1cc2ccccc2cc1O (configuration not stated) | inconclusive: 3.98 µM [inhibitor, full curve] |
| COc1cc(/C=C/C(=O)OCC(=O)Nc2cccc(Oc3ccccc3)c2)ccc1O | inconclusive: 39.5 µM [inhibitor, single point] |
| Cc1nn(-c2ccccc2)c(Cl)c1C1C(C#N)=C(N)Oc2c1c(C)nn2-c1ccccc1 (configuration not stated) | inconclusive: 28 µM [inhibitor, partial curve] |
| CCOP(=O)(OCC)C(NC(=O)Nc1ccccc1)c1ccccc1 (configuration not stated) | inactive |
| Cc1ccn2c(Nc3ccc(F)cc3)c(-c3ccccn3)nc2c1 | inconclusive: 4.47 µM [inhibitor, full curve] |
| CC(C)Cc1ccc(C(C)NC(=O)c2ccc(=O)[nH]c2)cc1 (configuration not stated) | inconclusive: 99.2 µM [activator, partial curve, poor fit] |
| COc1ccc(Nc2oc(-c3ccc(OC)cc3)nc2C#N)cc1 | inconclusive: 28.2 µM [inhibitor, single point] |
| COc1ccc(NC2CS(=O)(=O)CC2NCc2ccco2)cc1 (configuration not stated) | inconclusive: 24.9 µM [inhibitor, partial curve] |
| COc1ccc(Oc2cn[nH]c2-c2ccc(O)cc2O)cc1 | inconclusive: 35.5 µM [inhibitor, partial curve] |
| O=C1C(CCCNC(=S)NCc2ccccc2)NC(=S)N1Cc1ccccc1 (configuration not stated) | inconclusive: 50.1 µM [inhibitor, single point] |
| C/C(=C\C(=O)c1ccccc1)Nc1ccc2c(c1)OCO2 | active: 15.8 µM |
| Cc1nn(C(=O)c2ccccc2)c(C)c1Sc1ccc(Cl)cc1 | inactive |
| CC(=O)Nc1ccccc1OCc1cc(=O)n2c3c(sc2n1)CCCC3 | inactive |
| COc1ccc2nc3ccccc3nc2c1NC(=O)c1ccc(Cl)cc1Cl | inactive |
| Cc1ccc2c(CN3CCCc4ccccc43)cc(=O)oc2c1C | inconclusive: 35.5 µM [activator, single point] |
| COc1ccc(-c2ccnc3[nH]n(-c4ccccc4)c(=O)c23)cc1 | inconclusive: 3.55 µM [inhibitor, full curve, poor fit] |
| CCC(CC)=N/N=C/c1c(O)n(CC)c2cc(C3=NNC(=O)CC3)ccc12 | inconclusive: 28 µM [inhibitor, single point] |
| CC/C(=N\Nc1ccccc1[N+](=O)[O-])c1ccc(O)cc1 | inconclusive: 39.5 µM [inhibitor, single point] |
| COCCN1C(=S)N[C@@H](c2ccccc2)C(C(=O)OC)=C1C | inactive |
| CCCCN(C(=O)CSc1nncn1-c1ccccc1)c1c(N)n(Cc2ccccc2)c(=O)[nH]c1=O | inactive |

| Compound | Potency |
| --- | --- |
| N/C(=N\N=C\c1ccc(O)cc1)c1nonc1N | inconclusive: 35.5 µM [inhibitor, single point] |
| O=C(c1ccccc1)c1ccc(OCCOCCN2CCN(Cc3ccccc3)CC2)cc1 | inactive |
| Cc1ccccc1OCCn1cc(C(=O)O)c2ccccc21 | inactive |
| Cc1[nH][nH]c(=O)c1C(c1ccc(O)c(Br)c1)c1c(C)[nH][nH]c1=O | inconclusive: 50.1 µM [inhibitor, single point] |
| c1ccc(-c2nc3ccccn3c2NCc2ccc3c(c2)OCO3)cc1 | active: 24.9 µM |
| C/C(=N\Nc1ccc(C(=O)O)cc1)c1ccc(Br)cc1 | inconclusive: 11.2 µM [inhibitor, partial curve] |
| C/C(N)=C(/C#N)C(=O)COC(=O)CCSc1ccccc1Cl | inconclusive: 39.8 µM [inhibitor, single point] |
| CCOC(=O)NC1(NC(C)C)Oc2ccccc2O1 | inactive |
| Cc1c(CCO)c(=O)n(-c2ccccc2)n1S(=O)(=O)c1ccc(Cl)cc1 | inconclusive: 25.1 µM [inhibitor, single point] |
| CCCOc1ccc(-c2nc(C#N)c(NCC3CCCO3)o2)cc1 (configuration not stated) | inconclusive: 22.2 µM [inhibitor, single point] |
| Cc1cccc(C)c1OCc1cc(=O)n2c(-c3ccccc3)csc2n1 | inconclusive: 50.1 µM [inhibitor, single point] |
| Cn1c2ccccc2c2cc(C(=O)NNS(=O)(=O)c3ccc(F)cc3)sc21 | inconclusive: 20 µM [inhibitor, partial curve] |
| COc1ccc2nc3cc(Cl)ccc3c(Nc3cc(C(C)C)c(O)cc3C)c2c1 | inconclusive: 22.4 µM [inhibitor, partial curve] |
| Cc1c(NC(=O)c2coc(=O)c(Br)c2)c(=O)n(-c2ccccc2)n1C | inconclusive: 24.9 µM [inhibitor, partial curve] |
| Nc1cc([N+](=O)[O-])ccc1Nc1ccc(O)cc1 | inconclusive: 4.43 µM [inhibitor, single point] |
| CCOc1ccc2nc(NC(=O)Nc3cccs3)sc2c1 | inconclusive: 31.6 µM [inhibitor, partial curve] |
| Cc1[nH]c2ccccc2c1/C=N/NC(=S)NCc1ccccc1 | inconclusive: 22.4 µM [inhibitor, partial curve] |
| Cc1ccc2c(c1)CC1(CN2C)C(=O)OC(C)(C)OC1=O | inconclusive: 24.9 µM [inhibitor, partial curve] |
| O=C1C2=C(c3ccccc31)[N+](=O)[C@@H]1CCCC[C@@H]1N2[O-] | inactive |
| Fc1ccc(Nc2c(-c3c[nH]c4ccccc34)nc3ccccn23)cc1 | active: 14.1 µM |
| O=C1N/C(=N/O)S/C1=C/c1cccc([N+](=O)[O-])c1 | inconclusive: 2.82 µM [inhibitor, full curve] |
